# Some of the results follow. No stated cut-off is given here; in the data, active = 3.2 or more and inactive = the rest. The signal is at background level for most entries.
# B1: CTNND2_Y1217_P1218L_YF (peptide)
# chain: FETSHYLASPD
# B2: CYBA_Y87_YF (peptide)
# chain: PFTRNYFVRAV
# B3: CTNND1_Y217_Y217C (peptide)
# chain: GYSRHCEDGYP
# B4: CTNND2_Y1217_P1218L (peptide)
# chain: YETSHYLASPD
# B5: CTSD_Y232 (peptide)
# chain: NIFSFYLSRDP
# B6: CXXC1_Y218_F219L_YF (peptide)
# chain: RESFKYLPSSL
# B7: CTNND2_Y1154_YF (peptide)
# chain: PSRKDYETFQP
# B8: CTSC_Y347_Y347C (peptide)
# chain: SSEYHCVGGFY
# B9: CYBA_Y87_R90Q (peptide)
# chain: PFTRNYYVQAV
# B10: CTSK_Y121_YF (peptide)
# chain: PDSVDYRKKGF
# B11: CYCS_Y47_YF (peptide)
# chain: GQAPGYSFTAA
# B12: CTSC_Y345_Y347C (peptide)
# chain: YYSSEYHCVGG
# B13: CTNND1_Y213_Y217C (peptide)
# chain: YPPDGYSRHCE
# B14: CYBA_Y72 (peptide)
# chain: RWGQKYMTAVV
# B15: CTNND2_Y1157_YF (peptide)
# chain: KDFETYQPFQN
# B16: CTNND2_Y1217_YF (peptide)
# chain: FETSHYPASPD
# B17: CTNND2_Y1157 (peptide)
# chain: KDYETYQPFQN
# B18: CTNND2_Y1157_P1159S_YF (peptide)
# chain: KDFETYQSFQN
# B19: CTSC_Y345 (peptide)
# chain: YYSSEYHYVGG
# What was measured:
# Assay in all cases: enrichment score (SH2-bound / input frequency) (ratio); bacterial display of known human phosphotyrosine sites (pTyr-Var adds point mutants) read by sequencing; higher = stronger binding; tyrosines were phosphorylated by kinases first
# Details in all cases: peptide library: pTyr-Var
# [1] = molecular target: SHP2 C-SH2 domain E139D
# [2] = molecular target: SHP2 C-SH2 domain wild-type
# [3] = molecular target: SHP2 N-SH2 domain L43F
# [4] = molecular target: SHP2 N-SH2 domain T42A
# [5] = molecular target: SHP2 N-SH2 domain T52S
# [6] = molecular target: SHP2 N-SH2 domain wild-type
# 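Further: displayed peptides selected on beads carrying the immobilized SH2 domain, with library peptides lacking any tyrosine serving as negative controls.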
Binder,enrichment score [1],enrichment score [2],enrichment score [3],enrichment score [4],enrichment score [5],enrichment score [6]
B1,inactive: 1.09,inactive: 0.777,inactive: 0.993,inactive: 0.863,inactive: 0.849,inactive: 0.991
B2,inactive: 0.37,inactive: 0.571,inactive: 0.45,inactive: 0.46,inactive: 0.569,inactive: 0.425
B3,inactive: 0.801,inactive: 0.861,inactive: 0.592,inactive: 0.716,inactive: 0.684,inactive: 0.978
B4,inactive: 0.675,inactive: 0.455,inactive: 0.53,inactive: 0.532,inactive: 0.512,inactive: 0.784
B5,active: 3.94,active: 3.21,active: 3.57,inactive: 3.01,active: 3.64,active: 3.43
B6,inactive: 0.696,inactive: 0.83,inactive: 0.801,inactive: 0.764,inactive: 0.554,inactive: 0.982
B7,inactive: 0.863,inactive: 0.527,inactive: 1.11,inactive: 0.569,inactive: 0.401,inactive: 0.856
B8,inactive: 0.567,inactive: 0.817,inactive: 0.819,inactive: 0.858,inactive: 0.615,inactive: 1.06
B9,inactive: 0.844,inactive: 1.25,inactive: 0.805,inactive: 0.567,inactive: 0.647,inactive: 0.805
B10,inactive: 0.566,inactive: 0.502,inactive: 0.427,inactive: 0.683,inactive: 0.536,inactive: 0.672
B11,inactive: 0.641,inactive: 0.562,inactive: 0.68,inactive: 0.555,inactive: 0.51,inactive: 0.611
B12,inactive: 1.1,inactive: 1.02,inactive: 0.984,inactive: 0.921,inactive: 0.888,inactive: 1.16
B13,inactive: 0.792,inactive: 0.655,inactive: 0.718,inactive: 0.58,inactive: 0.608,inactive: 0.745
B14,inactive: 2.16,inactive: 1.62,inactive: 1.9,inactive: 1.76,inactive: 2.11,inactive: 2
B15,inactive: 0.715,inactive: 0.505,inactive: 0.822,inactive: 0.673,inactive: 0.681,inactive: 0.791
B16,inactive: 0.752,inactive: 0.756,inactive: 0.987,inactive: 0.574,inactive: 0.697,inactive: 0.908
B17,inactive: 1.08,inactive: 0.938,inactive: 0.73,inactive: 0.763,inactive: 0.632,inactive: 0.736
B18,inactive: 0.81,inactive: 0.641,inactive: 0.701,inactive: 0.715,inactive: 0.686,inactive: 0.728
B19,inactive: 1.36,inactive: 1.36,inactive: 1.09,inactive: 0.969,inactive: 1.1,inactive: 1.3
